According to PubChem BioAssay AID624202 (National Center for Advancing Translational Sciences (NCATS), 2012):
The whole screen tested about 380,000 compounds, of which about 4,000 (1.1%) were called active. Inconclusive means that the source gave no clear call. Such entries were picked first, then a sample of the others. Calls follow the shape of the dose curve; as a rule, active = well fitted activation curve with a large enough effect; inconclusive = small, poorly fitted or top-dose-only effect; inactive = no such curve, though single readings can be large or run the other way. A potency beside an inconclusive call is a rough fit, not a confirmed value.
Potency is read from the fitted curve at half-maximal effect; tags tell the direction and shape of the fitted curve.

Assay: qHTS Assay to Identify Small Molecule Activators of BRCA1 Expression; also: nearly all actives have a fitted effect of over 80% in size
Settings: MCF7-BRCA1-FFLuc reporter, luminescence, 48 h; activation: at 46.1 µM (top of the series), scaled: vehicle 0%, 10 µM genistein 100% unless noted
How it was run: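 48 h compound treatment of MCF7-BRCA1-FFLuc cells (phenol-red free MEM, 37 °C), then 15 min with luciferase substrate and luminescence imaging.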
In the case of `c1ccc(OCc2nc3ccccc3s2)cc1`, the Potency is reported as inconclusive: 2.51 µM [activator, partial curve, poor fit].
In the case of `Cc1nc(-c2ccc(NC(=O)C3CCCCC3)cc2)cs1`, the Potency is reported as inconclusive: 12.6 µM [activator, partial curve, poor fit].
With `Cc1ccc(C(=O)NCC(=O)N/N=C/c2cccs2)cc1[N+](=O)[O-]` the Potency was “inactive”.
In the case of `CC1CCCN(C(=O)CSc2cnc3ccccc3n2)C1` (stereo unspecified), the Potency is reported as active: 11.2 µM.
With `Cc1oc2ccc(OCc3ccc(Cl)cc3)cc2c1C(=O)O` the Potency was “inactive”.
For `CCOC(=O)c1ccc(NC(=O)CSc2n[nH]c(-c3ccncc3)n2)cc1`, the Potency was inconclusive: 3.16 µM [activator, partial curve, poor fit].
In the case of `COc1ccc(CNc2ccc([N+](=O)[O-])cn2)cc1`, the Potency is reported as active: 10 µM.
For `Clc1ccc(-c2cn3cccnc3n2)cc1Cl`, the Potency was inconclusive: 1.58 µM [activator, full curve, poor fit].
For `COc1ccc(C(=O)CSc2nnn(-c3cccc(NC(C)=O)c3)n2)cc1`, the Potency was inconclusive: 12.6 µM [activator, single point].
With `Cc1ccc(CC(=O)NCC2CCCCC2)cc1` the Potency was inconclusive: 15.8 µM [activator, single point].
In the case of `COc1ccc(C2OC(=O)CC2C(=O)NCc2ccc(Cl)cc2)cc1OC` (stereo unspecified), the Potency is reported as active: 8.91 µM.
With `O=C(CCN1CCN(c2ccccc2)CC1)c1ccc(Br)cc1` the Potency was “inactive”.
For `CC(C)(C)N1C(=O)c2ccc(C(=O)Nc3nccs3)cc2C1=O`, the Potency was inconclusive: 14.1 µM [activator, single point].
With `NS(=O)(=O)c1ccc(N/C=C/C(=O)c2ccc(Br)cc2)cc1` the Potency was inconclusive: 7.94 µM [activator, partial curve, poor fit].
For `C/C(=N\NS(=O)(=O)c1ccccc1)c1ccc2c(c1)OCCO2`, the Potency was “inactive”.
With `Cc1ccc(-c2noc(CNc3ccccc3)n2)cc1` the Potency was inconclusive: 15.8 µM [activator, partial curve, poor fit].
For `O=C(CSCc1ccc(Cl)cc1)N1CCCCC1`, the Potency was inconclusive: 10 µM [activator, partial curve, poor fit].
For `O=[n+]1c2c(n([O-])c3cc(Br)ccc31)CCCC2`, the Potency was “inactive”.
With `Cn1cccc1C(=O)NCC1COc2ccccc2O1` (stereo unspecified) the Potency was inconclusive: 3.55 µM [activator, partial curve, poor fit].
With `CCOC(=O)c1cccc(NC(=O)CCc2c(C)nc3cc(-c4ccc(Cl)cc4)nn3c2C)c1` the Potency was “inactive”.
With `CN(CCC1CCOCC1)Cc1cn[nH]c1-c1ccc(-c2ccccc2)cc1` the Potency was inconclusive: 14.1 µM [activator, partial curve, poor fit].
With `CCN(CC)C(=O)c1sc2nc(N3CCOCC3)c3c(c2c1N)CCCC3` the Potency was “inactive”.
In the case of `CC(=O)c1sc(NC(=O)c2ccc(Cl)cc2)nc1C`, the Potency is reported as active: 3.16 µM.
With `c1ccc(Cn2nc(-c3ccccc3)nc2-c2ccccc2)cc1` the Potency was inconclusive: 14.1 µM [activator, single point].
For `COc1cccc(/C(C)=N/NC(=O)c2ccc(N(C)C)cc2)c1`, the Potency was active: 4.47 µM.
With `Cc1noc(C)c1COC(=O)c1ccc(F)c(S(=O)(=O)N2CCCCC2)c1` the Potency was “inactive”.
For `O=C(Nc1ccc2c(c1)COC2=O)c1ccc(Cl)c(Cl)c1`, the Potency was active: 14.1 µM.
For `COc1ccc2oc(C(=O)NC(C)(C)C)c(C)c2c1`, the Potency was active: 7.08 µM.
For `COc1ccc(C(=O)Nc2cc(C(C)C)c(O)c(S(=O)(=O)c3ccc(OC)cc3)c2C)cc1`, the Potency was active: 5.62 µM.
With `COCCNc1nc(Oc2ccccc2)c2sccc2n1` the Potency was “inactive”.
For `CCCn1c(=O)n(-c2cc(Cl)c(OC)cc2OC)c(=O)c2c3c(sc21)CN(C(C)=O)CC3`, the Potency was “inactive”.
For `CCn1c(C)nc2cc(C(=O)OCCC(F)(F)F)ccc21`, the Potency was inconclusive: 14.1 µM [activator, single point].
In the case of `c1coc(CN2CNc3nc4ccccc4n3C2)c1`, the Potency is reported as “inactive”.
In the case of `Fc1cccc(Cl)c1CSc1ccc(-c2cccnc2)nn1`, the Potency is reported as inconclusive: 11.2 µM [activator, partial curve, poor fit].
In the case of `CCCCC(C(=O)N/N=C/c1ccccn1)C(=O)N/N=C/c1ccccn1`, the Potency is reported as “inactive”.
In the case of `CCN(CC)S(=O)(=O)c1cccc(C(=O)N/N=C/c2ccccc2OCC(=O)O)c1`, the Potency is reported as “inactive”.
In the case of `C=CCNCCCCOc1ccccc1`, the Potency is reported as inconclusive: 35.5 µM [activator, single point].
In the case of `COc1cccc(CSc2nc3ccccc3[nH]2)c1`, the Potency is reported as inconclusive: 2.82 µM [activator, full curve, poor fit].
With `Fc1cccc(Cn2ccc(-c3ccc4c(c3)OCO4)n2)c1` the Potency was active: 10 µM.
In the case of `CC1CCc2c(sc(NC(=O)C3=COCCO3)c2C(N)=O)C1` (stereo unspecified), the Potency is reported as active: 7.08 µM.
In the case of `COc1ccc(OC(=O)NCCc2ccccc2)cc1`, the Potency is reported as inconclusive: 17.8 µM [activator, partial curve, poor fit].
In the case of `CCCCCCN1C[C@H](n2cc(C3CC3)nn2)[C@@H](O)C[C@@H]1c1ccc(OC)cc1`, the Potency is reported as “inactive”.
For `CCOCCn1c(COc2ccc(C)cc2)nc2ccccc21`, the Potency was inconclusive: 10 µM [activator, partial curve, poor fit].
In the case of `CN(/N=C/c1ccc2c(c1)OCO2)c1ccccc1`, the Potency is reported as active: 7.08 µM.
For `CCC1(O)C(=O)OCc2c1cc1n(c2=O)Cc2cc3cc(O)ccc3nc2-1` (stereo unspecified), the activation was inconclusive: -81.9% [activator].
In the case of `Cc1c(C(=O)NC2CCCCC2)oc2ccccc12`, the Potency is reported as inconclusive: 14.1 µM [activator, partial curve, poor fit].
With `Cc1ccccc1N1CCN(C2=NC(=O)/C(=C/c3cn[nH]c3-c3ccccc3)S2)CC1` the Potency was “inactive”.
With `CCOC(=O)Cc1csc(NC(=S)NC(=O)c2ccc(C)cc2)n1` the Potency was “inactive”.
With `O=C(Nc1ccccn1)c1cc2ccccc2o1` the Potency was “inactive”.
For `Nc1ccc2cccnc2c1`, the Potency was inconclusive: 2 µM [activator, partial curve, poor fit].
With `O=C(COc1ncnc2ccccc12)c1ccc2c(c1)OCCO2` the Potency was inconclusive: 1.58 µM [activator, full curve, poor fit].
With `COC(=O)Cc1ccc(NC(=O)c2ccc(Br)o2)cc1` the Potency was active: 12.6 µM.
In the case of `O=c1oc2cc(OCc3c(F)cccc3Cl)ccc2cc1-c1ccccn1`, the Potency is reported as inconclusive: 2.51 µM [activator, partial curve, poor fit].
In the case of `COC(=O)c1ccc(/C=C2\Oc3ccccc3NC2=O)cc1`, the Potency is reported as active: 2.24 µM.
In the case of `Nc1nc(-c2ccc(Cl)cc2)nnc1-c1ccc(Br)cc1`, the Potency is reported as inconclusive: 2.51 µM [activator, full curve, poor fit].
With `Cc1ccc(NC(=O)CN(C)C(=O)Nc2ccc(C)cc2)cc1` the Potency was inconclusive: 35.5 µM [activator, single point].
For `CCOc1ccc(NC(=O)Nc2cccs2)cc1`, the Potency was inconclusive: 2.51 µM [activator, full curve, poor fit].
In the case of `O=C(CN(C(=O)CCC(=O)Nc1nccs1)c1ccccc1F)NCc1ccc(F)cc1`, the Potency is reported as “inactive”.
With `O=C(/C=C/c1ccco1)NCCc1ccc(F)cc1` the Potency was “inactive”.
In the case of `Cc1ccccc1C(=O)N=c1sccn1C`, the Potency is reported as inconclusive: 14.1 µM [activator, partial curve, poor fit].
With `CCC1=NN(C(=O)c2ccc(Cl)cc2)C(O)(c2ccccc2)C1` (stereo unspecified) the Potency was “inactive”.
With `COc1cccc2sc3cc(C#CC4(O)CCCCC4)ccc3c(=O)c12` the activation was inconclusive: 23.7% [activator].
In the case of `O=C(CCSc1ccc(Cl)cc1)N1CCN(c2ncccn2)CC1`, the Potency is reported as inconclusive: 2.82 µM [activator, full curve, poor fit].
In the case of `O=C(Oc1ccc(-c2cnc3ccccc3n2)cc1)c1cc([N+](=O)[O-])ccc1Cl`, the Potency is reported as inconclusive: 3.55 µM [activator, full curve, poor fit].
For `Cc1cc(=O)n2[nH]c(-c3cccc(Cl)c3)cc2n1`, the Potency was inconclusive: 35.5 µM [activator, single point].
With `CC(Cc1cccs1)NC(=O)c1cccs1` (stereo unspecified) the Potency was inconclusive: 14.1 µM [activator, partial curve, poor fit].
For `O=C(/C=C/c1ccccc1)N1CCC(Cc2ccccc2)CC1`, the Potency was inconclusive: 12.6 µM [activator, partial curve, poor fit].
With `COc1ccc(OCCOc2ccc(C)nc2[N+](=O)[O-])cc1` the Potency was inconclusive: 12.6 µM [activator, partial curve, poor fit].
In the case of `CN(C(=O)Nc1ccc(Cl)cc1Cl)C1CCCC1`, the Potency is reported as inconclusive: 14.1 µM [activator, partial curve, poor fit].
With `CC(=O)c1ccc(NC(=O)c2ccc(C)c(Br)c2)cc1` the Potency was inconclusive: 0.562 µM [activator, full curve, poor fit].
For `COc1ccc(C(=O)NC2=NCCS2)c(OC)c1`, the Potency was inconclusive: 1 µM [activator, full curve, poor fit].
With `Cc1nc2ccc(NC(=S)NCc3ccccc3)cc2nc1C` the Potency was inconclusive: 15.8 µM [activator, partial curve, poor fit].
For `C(=N\Nc1nccc(-c2cccnc2)n1)/c1ccccc1`, the activation was inconclusive: 60.2% [activator].
With `CCCOc1ccc(-c2c(=O)n(O)c3ccccc3[n+]2[O-])cc1` the Potency was inconclusive: 11.2 µM [activator, partial curve, poor fit].
For `CC(=O)Nc1ccc(NC(=O)Nc2ccccc2C)cc1`, the Potency was inconclusive: 15.8 µM [activator, partial curve, poor fit].
With `COc1ccc(-c2csc(Nc3ccccc3)n2)cc1` the Potency was inconclusive: 1.58 µM [activator, partial curve, poor fit].
